Results reported in PubChem BioAssay AID485294 (National Center for Advancing Translational Sciences (NCATS), 2010).
The campaign covered roughly 370,000 compounds. About 150 (0.041%) were called active. Inconclusive means that the source gave no clear call. Such entries were picked first, then a sample of the others. Calls follow the shape of the dose curve; as a rule, active = well fitted inhibition curve with a large enough effect; inconclusive = small, poorly fitted or top-dose-only effect; inactive = flat fitted curve, though single readings scatter. No potency is given beside an inconclusive call; the fits are too rough.

These compounds were tested against Beta-lactamase (Escherichia coli (strain K12)) (UniProt P00811) (assay: qHTS Inhibitors of AmpC Beta-Lactamase (assay with detergent)). Conditions: AmpC hydrolysis of nitrocefin, absorbance 480 nm, 0.01% Triton; activity change, negative = inhibition: at 114 µM (top of the series).
UniProt P00811, sequence (P00811 whole entry, looked up): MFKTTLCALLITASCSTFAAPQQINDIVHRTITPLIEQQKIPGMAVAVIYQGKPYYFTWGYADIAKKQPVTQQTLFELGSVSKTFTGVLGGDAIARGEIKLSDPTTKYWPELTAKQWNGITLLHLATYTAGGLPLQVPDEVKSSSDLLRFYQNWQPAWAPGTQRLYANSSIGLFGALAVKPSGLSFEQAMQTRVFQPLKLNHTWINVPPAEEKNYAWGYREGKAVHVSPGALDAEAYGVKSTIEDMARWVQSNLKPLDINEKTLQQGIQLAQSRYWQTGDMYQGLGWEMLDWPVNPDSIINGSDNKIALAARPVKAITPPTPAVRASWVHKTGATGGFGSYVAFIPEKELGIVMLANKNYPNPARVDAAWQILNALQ
Outline: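 AmpC (5.3 nM in the dispensed reagent) in 20 mM phosphate pH 7.0 with 0.01% (detergent screen) or 0.0001% Triton X-100 was preincubated with compounds for 15 min at room temperature. Nitrocefin was then added from an 800 uM solution, and hydrolysis was followed at 480 nm.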
Also: nearly all actives have a fitted effect of over 25% in size.
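For activity change, negative = inhibition in this document: 0% = no-compound wells and -100% = no-enzyme wells.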
Potency is read from the fitted curve at half-maximal effect; tags tell the direction and shape of the fitted curve.

Compound	activity change, negative = inhibition	Potency
Cc1nc(C)c(-c2ccc(SCc3ccc(Cl)cc3)nn2)s1	inactive: 1.7%	
O=C(NCCN1CCCCC1)c1ccc(Cn2c(SCc3cccc(F)c3)nc3cccnc32)cc1	inactive: 14.5%	
CCC1C(=O)N=C(SCC(=O)Nc2ccc(C)cc2)N(c2ccccc2)C1=O (centres undefined)	inactive: -9.96%	
Cc1ccc(Cl)cc1NC1=NC(=S)N(C(C)C)C12CCCCC2		inconclusive [inhibitor, single point]
O=S(=O)(NCC1CCCO1)c1ccc(Cl)c(C(F)(F)F)c1 (centres undefined)		inconclusive [inhibitor, full curve, poor fit]
CCOC(=O)c1ccc2c(c1)nc(C1CCN(S(=O)(=O)c3cccs3)CC1)n2CC		inconclusive [inhibitor, full curve, poor fit]
CCOc1cc(C2C3=C(CCCC3=O)N(CC(=O)O)C3=C2C(=O)CCC3)ccc1OC	inactive: -10.4%	
Cc1ccc(S(=O)(=O)N2CCCCC2)cc1NC(=O)c1c(-c2ccccc2)noc1C		inconclusive [inhibitor, full curve, poor fit]
NNC(=O)c1cnn(-c2ccccc2)c1C(F)(F)F		inconclusive [inhibitor, single point]
CCn1c(=O)c(C(=O)NCc2cccnc2)c(O)c2ccccc21		inconclusive [inhibitor, partial curve, poor fit]
O=C(Nc1ccc(OCC(=O)N2CCOCC2)cc1)c1cc(F)c(F)cc1Cl		inconclusive [inhibitor, full curve]
C=CCOc1ccc(CNc2ccc(NC(=O)CC(C)C)cc2)cc1OC	inactive: -9.48%	
Cc1cccc(CN2CCN(C(=O)Cc3ccccc3)CC2)c1		inconclusive [inhibitor, full curve, poor fit]
CCCSc1nnc(C(C)C)n1N		inconclusive [inhibitor, full curve]
O=C(NC1=NCCS1)c1cccc(OC(F)F)c1		inconclusive [inhibitor, partial curve]
OCC[C@H]1C[C@@H](O)[C@H](O)[C@@]2(CCc3ccccc3CO2)O1		inconclusive [inhibitor, full curve]
Cc1ccccc1/C=C/c1cccc[n+]1C		inconclusive [inhibitor, partial curve, poor fit]
Cc1ccc(OS(=O)(=O)c2ccccc2)c(/C=N/N=C2\NC(=O)C(C)S2)c1 (centres undefined)		inconclusive [inhibitor, full curve, poor fit]
COc1ccccc1CNc1cc(CSc2ccc(Cl)cc2)nc(C)n1	inactive: -1.18%	
